# Experimental data published in the supplement of paper PMC8728848.
# The list shows a part of the results.
# B1: Cohesin-marm-DC-ASGPR (protein)
# chain: LDITSHHHHHHDDLDAVRIKVDTVNAKPGDTVRIPVRFSGIPSKGIANCDFVYSYDPNVLEIIEIEPGDIIVDPNPDKSFDTAVYPDRKIIVFLFAEDSGTGAYAITKDGVFATIVAKVKEGAPNGLSVIKFVEVGGFANNDLVEQKTQFFDGGVNVGDTTEPATPTTPVTTPTTTDDLDAASSKFQRDLVTLRTDFSNFTSNTLAEIQALTSQGSSLQETIASLKAEVEGHKQELQAGASELQEHNKQKAHLGRCPHTCVCPSSFVCVPVHSEILLRVQQLVQDLNKLSCQVAILKNNATTERTCCPINWVEHQGSCYWFSRSGKTWPEAERYCQLENTHLVVINSREEQNFVQAHLGSAYTWMGLSDPEGVWKWVDGTDYSSGFQNWKPGQPDDWQGHGLGGGEDCAHFHPDGRWNDDVCQRSYHWVCEAGLTQASQDSHAS
# Columns and labels:
# Assay in all cases: glycan array binding signal (z-score within array); higher = stronger binding
# Conditions in all cases: glycan notation: IUPAC condensed, linker removed
# [1] = target: Neu5Ac(a2-3)Gal(b1-3)GlcNAc(b1-2)Man(a1-3)[GlcNAc(b1-4)][Neu5Ac(a2-3)Gal(b1-3)GlcNAc(b1-2)Man(a1-6)]Man(b1-4)GlcNAc(b1-4)GlcNAc
# In short: (§1)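 The binding signal is a Z-score computed within each array and averaged over linkers. Arrays of the same protein sequence at different concentrations or buffers were also averaged together. Data originate from 3228 arrays in the Consortium for Functional Glycomics database, kept only where the protein sequence was available.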
# [2] = target: Neu5Ac(a2-3)Gal(b1-3)GlcNAc(b1-2)Man(a1-3)[Neu5Ac(a2-3)Gal(b1-3)GlcNAc(b1-2)Man(a1-6)]Man(b1-4)GlcNAc(b1-4)GlcNAc
# In short: as §1
# [3] = target: Neu5Ac(a2-3)Gal(b1-3)GlcNAc(b1-3)Gal(b1-3)GlcNAc
# In short: as §1
# [4] = target: Neu5Ac(a2-3)Gal(b1-3)GlcNAc(b1-3)Gal(b1-4)GlcNAc
# In short: as §1
# [5] = target: Neu5Ac(a2-3)Gal(b1-3)GlcNAc(b1-3)GalNAc
# In short: as §1
# [6] = target: Neu5Ac(a2-3)Gal(b1-3)GlcNAc(b1-4)Gal(b1-4)Glc
# In short: as §1
# [7] = target: Neu5Ac(a2-3)Gal(b1-3)GlcNAc(b1-6)GalNAc
# In short: as §1
# [8] = target: Neu5Ac(a2-3)Gal(b1-3)GlcNAc6S
# In short: as §1
# [9] = target: Neu5Ac(a2-3)Gal(b1-3)[Fuc(a1-4)]GlcNAc
# In short: as §1
# [10] = target: Neu5Ac(a2-3)Gal(b1-3)[Fuc(a1-4)]GlcNAc(b1-3)Gal(b1-3)[Fuc(a1-4)]GlcNAc
# In short: as §1
# [11] = target: Neu5Ac(a2-3)Gal(b1-3)[Fuc(a1-4)]GlcNAc(b1-3)Gal(b1-4)[Fuc(a1-3)]GlcNAc
# In short: as §1
# [12] = target: Neu5Ac(a2-3)Gal(b1-3)[GlcNAc(b1-6)]GalNAc
# In short: as §1
# [13] = target: Neu5Ac(a2-3)Gal(b1-3)[Neu5Ac(a2-6)]GalNAc
# In short: as §1
# [14] = target: Neu5Ac(a2-3)Gal(b1-3)[Neu5Ac(a2-6)]GlcNAc(b1-3)[Fuc(a1-3)[Gal(b1-4)]GlcNAc(b1-6)]Gal(b1-4)Glc
# In short: as §1
# [15] = target: Neu5Ac(a2-3)Gal(b1-3)]Neu5Ac(a2-3)Gal(b1-4)]GlcNAc
# In short: as §1
# Neu5Ac(a2-3)Gal(b1-4)Glc = target: Neu5Ac(a2-3)Gal(b1-4)Glc
# In short: as §1
# [16] = target: Neu5Ac(a2-3)Gal(b1-4)GlcNAc
# In short: as §1
# [17] = target: Neu5Ac(a2-3)Gal(b1-4)GlcNAc(b1-2)Man
# In short: as §1
# [18] = target: Neu5Ac(a2-3)Gal(b1-4)GlcNAc(b1-2)Man(a1-3)[GlcNAc(b1-4)][Neu5Ac(a2-3)Gal(b1-4)GlcNAc(b1-2)Man(a1-6)]Man(b1-4)GlcNAc(b1-4)GlcNAc
# In short: as §1
# [19] = target: Neu5Ac(a2-3)Gal(b1-4)GlcNAc(b1-2)Man(a1-3)[Neu5Ac(a2-3)Gal(b1-4)GlcNAc(b1-2)Man(a1-6)]Man(b1-4)GlcNAc(b1-4)GlcNAc
# In short: as §1
# [20] = target: Neu5Ac(a2-3)Gal(b1-4)GlcNAc(b1-2)Man(a1-3)[Neu5Ac(a2-3)Gal(b1-4)GlcNAc(b1-2)Man(a1-6)]Man(b1-4)GlcNAc(b1-4)[Fuc(a1-6)]GlcNAc
# In short: as §1
# [21] = target: Neu5Ac(a2-3)Gal(b1-4)GlcNAc(b1-2)Man(a1-3)[Neu5Ac(a2-6)Gal(b1-4)GlcNAc(b1-2)Man(a1-6)]Man(b1-4)GlcNAc(b1-4)GlcNAc
# In short: as §1
# [22] = target: Neu5Ac(a2-3)Gal(b1-4)GlcNAc(b1-2)[Neu5Ac(a2-3)Gal(b1-4)GlcNAc(b1-4)]Man(a1-3)[GlcNAc(b1-4)][Neu5Ac(a2-3)Gal(b1-4)GlcNAc(b1-2)[Neu5Ac(a2-3)Gal(b1-4)GlcNAc(b1-6)]Man(a1-6)]Man(b1-4)GlcNAc(b1-4)GlcNAc
# In short: as §1
# [23] = target: Neu5Ac(a2-3)Gal(b1-4)GlcNAc(b1-2)[Neu5Ac(a2-3)Gal(b1-4)GlcNAc(b1-4)]Man(a1-3)[GlcNAc(b1-4)][Neu5Ac(a2-3)Gal(b1-4)GlcNAc(b1-4)Man(a1-6)]Man(b1-4)GlcNAc(b1-4)GlcNAc
# In short: as §1
# [24] = target: Neu5Ac(a2-3)Gal(b1-4)GlcNAc(b1-2)[Neu5Ac(a2-3)Gal(b1-4)GlcNAc(b1-6)]Man(a1-6)[Neu5Ac(a2-3)Gal(b1-4)GlcNAc(b1-2)Man(a1-3)]Man(b1-4)GlcNAc(b1-4)GlcNAc
# In short: as §1
# [25] = target: Neu5Ac(a2-3)Gal(b1-4)GlcNAc(b1-2)[Neu5Ac(a2-3)Gal(b1-4)GlcNAc(b1-6)]Man(a1-6)[Neu5Ac(a2-3)Gal(b1-4)GlcNAc(b1-2)Man(a1-3)][GlcNAc(b1-4)]Man(b1-4)GlcNAc(b1-4)GlcNAc
# In short: as §1
# [26] = target: Neu5Ac(a2-3)Gal(b1-4)GlcNAc(b1-3)Gal
# In short: as §1
# [27] = target: Neu5Ac(a2-3)Gal(b1-4)GlcNAc(b1-3)Gal(b1-3)GlcNAc
# In short: as §1
# [28] = target: Neu5Ac(a2-3)Gal(b1-4)GlcNAc(b1-3)Gal(b1-4)GlcNAc
# In short: as §1
# [29] = target: Neu5Ac(a2-3)Gal(b1-4)GlcNAc(b1-3)Gal(b1-4)GlcNAc(b1-2)Man(a1-3)[Neu5Ac(a2-3)Gal(b1-4)GlcNAc(b1-3)Gal(b1-4)GlcNAc(b1-2)Man(a1-6)]Man(b1-4)GlcNAc(b1-4)GlcNAc
# In short: as §1
# [30] = target: Neu5Ac(a2-3)Gal(b1-4)GlcNAc(b1-3)Gal(b1-4)GlcNAc(b1-3)Gal(b1-4)GlcNAc
# In short: as §1
# [31] = target: Neu5Ac(a2-3)Gal(b1-4)GlcNAc(b1-3)Gal(b1-4)GlcNAc(b1-3)Gal(b1-4)GlcNAc(b1-2)Man(a1-3)[Neu5Ac(a2-3)Gal(b1-4)GlcNAc(b1-3)Gal(b1-4)GlcNAc(b1-3)Gal(b1-4)GlcNAc(b1-2)Man(a1-6)]GalNAc
# In short: as §1
# [32] = target: Neu5Ac(a2-3)Gal(b1-4)GlcNAc(b1-3)Gal(b1-4)GlcNAc(b1-3)GalNAc
# In short: as §1
# [33] = target: Neu5Ac(a2-3)Gal(b1-4)GlcNAc(b1-3)Gal(b1-4)GlcNAc(b1-3)[Neu5Ac(a2-3)Gal(b1-4)GlcNAc(b1-3)Gal(b1-4)GlcNAc(b1-6)]GalNAc
# In short: as §1
# [34] = target: Neu5Ac(a2-3)Gal(b1-4)GlcNAc(b1-3)Gal(b1-4)GlcNAc(b1-6)[Gal(b1-3)]GalNAc
# In short: as §1
# [35] = target: Neu5Ac(a2-3)Gal(b1-4)GlcNAc(b1-3)Gal(b1-4)[Fuc(a1-3)]GlcNAc
# In short: as §1
# [36] = target: Neu5Ac(a2-3)Gal(b1-4)GlcNAc(b1-3)GalNAc
# In short: as §1
# [37] = target: Neu5Ac(a2-3)Gal(b1-4)GlcNAc(b1-3)[Neu5Ac(a2-3)Gal(b1-4)GlcNAc(b1-6)]GalNAc
# In short: as §1
binder,measurement,setting,value
B1,glycan array binding signal (z-score),[1],-0.307
same,glycan array binding signal (z-score),[2],-0.258
same,glycan array binding signal (z-score),[3],-0.296
same,glycan array binding signal (z-score),[4],-0.311
same,glycan array binding signal (z-score),[5],-0.302
same,glycan array binding signal (z-score),[6],-0.303
same,glycan array binding signal (z-score),[7],3.74
same,glycan array binding signal (z-score),[8],-0.277
same,glycan array binding signal (z-score),[9],-0.304
same,glycan array binding signal (z-score),[10],-0.221
same,glycan array binding signal (z-score),[11],-0.285
same,glycan array binding signal (z-score),[12],-0.303
same,glycan array binding signal (z-score),[13],-0.294
same,glycan array binding signal (z-score),[14],-0.31
same,glycan array binding signal (z-score),[15],-0.294
same,glycan array binding signal (z-score),Neu5Ac(a2-3)Gal(b1-4)Glc,-0.304
same,glycan array binding signal (z-score),[16],-0.295
same,glycan array binding signal (z-score),[17],-0.146
same,glycan array binding signal (z-score),[18],-0.311
same,glycan array binding signal (z-score),[19],-0.302
same,glycan array binding signal (z-score),[20],-0.3
same,glycan array binding signal (z-score),[21],-0.313
same,glycan array binding signal (z-score),[22],-0.13
same,glycan array binding signal (z-score),[23],-0.098
same,glycan array binding signal (z-score),[24],-0.297
same,glycan array binding signal (z-score),[25],-0.294
same,glycan array binding signal (z-score),[26],-0.313
same,glycan array binding signal (z-score),[27],-0.305
same,glycan array binding signal (z-score),[28],-0.307
same,glycan array binding signal (z-score),[29],-0.276
same,glycan array binding signal (z-score),[30],-0.288
same,glycan array binding signal (z-score),[31],-0.281
same,glycan array binding signal (z-score),[32],-0.211
same,glycan array binding signal (z-score),[33],-0.303
same,glycan array binding signal (z-score),[34],-0.307
same,glycan array binding signal (z-score),[35],-0.31
same,glycan array binding signal (z-score),[36],-0.307
same,glycan array binding signal (z-score),[37],-0.311
